{"source": "paper PMC4336329", "about": "(PLoS ONE, 2015)", "note": "Hit rate of the full screen: of about 310,000 compounds, about 2,200 (0.71%) showed an effect of 50% or more. The effect is printed as a negative number. This is one part of the list."}
{"molecular_target": "human ether-à-go-go-related gene (hERG) potassium channel (human, UniProt Q12809)", "sequence (Q12809 whole entry, looked up)": "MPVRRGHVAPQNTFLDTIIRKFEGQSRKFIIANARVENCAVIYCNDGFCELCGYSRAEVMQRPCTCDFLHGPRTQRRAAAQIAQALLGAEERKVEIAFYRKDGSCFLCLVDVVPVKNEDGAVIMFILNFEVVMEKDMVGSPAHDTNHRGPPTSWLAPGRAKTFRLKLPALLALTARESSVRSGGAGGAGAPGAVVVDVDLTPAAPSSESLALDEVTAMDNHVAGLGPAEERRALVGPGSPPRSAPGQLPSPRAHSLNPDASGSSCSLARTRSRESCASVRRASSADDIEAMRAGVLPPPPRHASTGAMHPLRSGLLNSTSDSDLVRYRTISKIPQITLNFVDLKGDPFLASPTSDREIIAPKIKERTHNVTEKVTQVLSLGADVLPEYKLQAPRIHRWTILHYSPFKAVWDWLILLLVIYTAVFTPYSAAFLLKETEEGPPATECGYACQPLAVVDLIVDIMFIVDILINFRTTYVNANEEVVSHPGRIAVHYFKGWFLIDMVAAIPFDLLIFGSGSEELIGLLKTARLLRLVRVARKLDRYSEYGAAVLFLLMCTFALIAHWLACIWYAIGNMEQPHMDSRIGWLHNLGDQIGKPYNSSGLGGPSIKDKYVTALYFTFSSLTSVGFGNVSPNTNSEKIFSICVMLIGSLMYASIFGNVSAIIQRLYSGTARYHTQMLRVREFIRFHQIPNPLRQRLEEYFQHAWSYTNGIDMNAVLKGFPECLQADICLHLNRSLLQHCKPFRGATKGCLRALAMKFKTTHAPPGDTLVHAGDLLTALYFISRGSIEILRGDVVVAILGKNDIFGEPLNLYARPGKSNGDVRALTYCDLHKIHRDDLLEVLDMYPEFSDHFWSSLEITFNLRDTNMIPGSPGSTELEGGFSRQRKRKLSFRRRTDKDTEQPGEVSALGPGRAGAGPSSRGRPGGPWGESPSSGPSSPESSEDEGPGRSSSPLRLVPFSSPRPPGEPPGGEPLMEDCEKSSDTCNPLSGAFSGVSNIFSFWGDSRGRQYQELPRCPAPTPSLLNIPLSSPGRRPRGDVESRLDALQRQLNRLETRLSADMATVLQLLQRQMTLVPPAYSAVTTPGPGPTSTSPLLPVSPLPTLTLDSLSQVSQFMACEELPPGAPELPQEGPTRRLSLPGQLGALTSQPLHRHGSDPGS", "experiment": "primary screen, population patch clamp on CHO cells stably expressing hERG", "units": {"hERG current change (%, negative = inhibition) at 1uM": "%"}}
{"smiles": "CCn1c(-c2csc3c2CCC(C)C3)n[nH]c1=S", "note": "(centres unmarked)", "hERG current change (%, negative = inhibition) at 1uM": 9.99}
{"smiles": "CC(NC(=O)CN1CCN(CC(=O)Nc2ccccc2Cl)CC1)c1ccc(Br)cc1", "note": "(centres unmarked)", "hERG current change (%, negative = inhibition) at 1uM": -10.2}
{"smiles": "COc1cc(OC)c(NC(=O)CCNC(=O)Cn2cnc3ccccc3c2=O)cc1Cl", "hERG current change (%, negative = inhibition) at 1uM": 3.54}
{"smiles": "Cc1cc(C)nc(S/C=C/C(=O)c2ccc(F)cc2)n1", "hERG current change (%, negative = inhibition) at 1uM": 15.8}
{"smiles": "Cc1ccc(SC(C)C(=O)Nc2ccncc2)cc1", "note": "(centres unmarked)", "hERG current change (%, negative = inhibition) at 1uM": -10.3}
{"smiles": "OCCCNc1nc(-c2ccccc2)c2cc(Cl)ccc2n1", "hERG current change (%, negative = inhibition) at 1uM": 5.65}
{"smiles": "O=C(Nc1ccc(Cl)c(Cl)c1)c1csc(-c2ccccc2)n1", "hERG current change (%, negative = inhibition) at 1uM": 9.67}
{"smiles": "O=C(NCCCN1CCOCC1)c1sc2cc(Cl)ccc2c1Cl", "hERG current change (%, negative = inhibition) at 1uM": 6.47}
{"smiles": "O=C(CNCCc1ccccc1)Nc1ccc(C(=O)N2CCCCC2)cc1.O=C(O)C(=O)O", "hERG current change (%, negative = inhibition) at 1uM": 7.88}
{"smiles": "O=C(CSc1ccc2nnc(-c3ccc(F)cc3)n2n1)N1CCOCC1", "hERG current change (%, negative = inhibition) at 1uM": -2.83}
{"smiles": "N#Cc1ccc(-c2cccnc2)nc1SCc1ccc(Cl)cc1Cl", "hERG current change (%, negative = inhibition) at 1uM": 18.5}
{"smiles": "COCCCNCCOc1ccccc1-c1ccccc1.O=C(O)C(=O)O", "hERG current change (%, negative = inhibition) at 1uM": 3.07}
{"smiles": "CCCN1CCN(S(=O)(=O)c2ccc3c(c2)OCCO3)CC1", "hERG current change (%, negative = inhibition) at 1uM": 7.09}
{"smiles": "CC(C)(C)CC(C)(C)NC(=O)c1ccc2snnc2c1", "hERG current change (%, negative = inhibition) at 1uM": 7.19}
{"smiles": "NC(=O)COC(=O)CCCSc1nc2ccccc2s1", "hERG current change (%, negative = inhibition) at 1uM": 7.55}
{"smiles": "Cc1ccc(NC2=C(Cl)C(=O)OC2OC(=O)c2ccccc2)c(C)c1", "note": "(centres unmarked)", "hERG current change (%, negative = inhibition) at 1uM": 10.5}
{"smiles": "CCN(CC)C(=O)C1CCN(S(=O)(=O)c2ccc3oc4ccccc4c3c2)CC1", "hERG current change (%, negative = inhibition) at 1uM": 16.7}
{"smiles": "CCN(CC(=O)Nc1ccc(NC(C)=O)cc1)CC(=O)Nc1ccccc1C(=O)c1ccccc1", "hERG current change (%, negative = inhibition) at 1uM": -1.86}
{"smiles": "COc1ccccc1C1C(C#N)=C(N)Oc2c1c(-c1ccccc1)nn2-c1ccccc1", "note": "(centres unmarked)", "hERG current change (%, negative = inhibition) at 1uM": 6.2}
{"smiles": "Cc1cc2c3nonc3ccc2n1C", "hERG current change (%, negative = inhibition) at 1uM": 7.1}
{"smiles": "CCn1c(SCc2ccc(C(=O)Nc3cc(C)cc(C)c3)cc2)nnc1-c1ccncc1", "hERG current change (%, negative = inhibition) at 1uM": -16.3}
{"smiles": "Cc1sc2nc(SCc3nc4ccccc4[nH]3)n(Cc3ccco3)c(=O)c2c1C", "hERG current change (%, negative = inhibition) at 1uM": 9.72}
{"smiles": "O=C(NCc1ccccc1Cl)C1(S(=O)(=O)c2ccc(Cl)cc2)CC1", "hERG current change (%, negative = inhibition) at 1uM": 7.67}
{"smiles": "Cl.O=C(OCC1CCCN2CCCCC12)c1ccc2c(c1)OCO2", "note": "(centres unmarked)", "hERG current change (%, negative = inhibition) at 1uM": -0.603}
{"smiles": "CCn1ccc(=O)c2cc3c(cc21)OCO3", "hERG current change (%, negative = inhibition) at 1uM": 9.21}
{"smiles": "COc1ccccc1C(=O)NCCC(=O)NNC(=O)c1ccccc1O", "hERG current change (%, negative = inhibition) at 1uM": 13.2}
{"smiles": "Cc1cccc(-c2nc(CN3CCCC(C(=O)NC4CCCCC4)C3)c(C)o2)c1", "note": "(centres unmarked)", "hERG current change (%, negative = inhibition) at 1uM": -19.2}
{"smiles": "O=C(Nc1nnc(C2CC2)s1)c1cccc(S(=O)(=O)N2CCc3ccccc32)c1", "hERG current change (%, negative = inhibition) at 1uM": 12.2}
{"smiles": "COc1ccc(OC)c(/C=N/NC(=S)NCCc2ccccc2)c1", "hERG current change (%, negative = inhibition) at 1uM": 11.6}
{"smiles": "CCOC(=O)C1=C(N)OC2=C(C(=O)CCC2)C1c1ccc2c(c1)OCO2", "note": "(centres unmarked)", "hERG current change (%, negative = inhibition) at 1uM": 7.78}
{"smiles": "O=C(NC1CC1)c1ccc(CN(c2ccccc2)S(=O)(=O)c2ccccc2)cc1", "hERG current change (%, negative = inhibition) at 1uM": 5.92}
{"smiles": "N#Cc1c(NC(=O)CSc2ncnc3sccc23)oc(-c2ccco2)c1-c1ccco1", "hERG current change (%, negative = inhibition) at 1uM": 15.3}
{"smiles": "COc1ccc(CCN2C(=O)CC(NC34CC5CC(CC(C5)C3)C4)C2=O)cc1OC", "note": "(centres unmarked)", "hERG current change (%, negative = inhibition) at 1uM": 13.2}
{"smiles": "Nc1nonc1-n1nnc(C(=O)N/N=C/c2cccc(Cl)c2)c1CSc1ccc(Cl)cc1", "hERG current change (%, negative = inhibition) at 1uM": 13}
{"smiles": "C/C=C(\\C)C(=O)N1CC2(CC(c3cccc(NC(=O)CCCCC)c3)=NO2)C[C@@H]1C(N)=O", "note": "(some centres unmarked)", "hERG current change (%, negative = inhibition) at 1uM": 1.78}
{"smiles": "O=C(Cc1n[nH]c(=O)c2ccccc12)NCc1ccccn1", "hERG current change (%, negative = inhibition) at 1uM": 9.31}
{"smiles": "C=CCSc1ncccc1C(=O)NCc1ccccc1", "hERG current change (%, negative = inhibition) at 1uM": 5.84}
{"smiles": "Cc1ccc(NC(=O)c2cccnc2)c([N+](=O)[O-])c1", "hERG current change (%, negative = inhibition) at 1uM": 13.6}
{"smiles": "O=C(Cc1ccc(Br)cc1)NC1CCN(Cc2ccccc2)CC1", "hERG current change (%, negative = inhibition) at 1uM": -2.43}
{"smiles": "COC(=O)C1=C(c2cccc(OCc3ccccc3)c2)C[C@@H]2CC[C@H]1N2C(=O)NCc1ccccc1", "hERG current change (%, negative = inhibition) at 1uM": 15.2}
{"smiles": "CC1CC(C)CN(C/C=C/c2ccccc2[N+](=O)[O-])C1", "note": "(centres unmarked)", "hERG current change (%, negative = inhibition) at 1uM": -25.7}
{"smiles": "CC(C)CN(CC(C)C)CC(O)CN(c1ccccc1)S(=O)(=O)c1ccccc1[N+](=O)[O-]", "note": "(centres unmarked)", "hERG current change (%, negative = inhibition) at 1uM": -29.2}
{"smiles": "CCn1cnc2cc(NC(=O)c3ccco3)ccc21", "hERG current change (%, negative = inhibition) at 1uM": 12.5}
{"smiles": "O=C(c1ccncc1)N1CCN(c2ccc3ccccc3n2)CC1", "hERG current change (%, negative = inhibition) at 1uM": 4.33}
{"smiles": "COc1ccc(C2c3cc(OC)c(OC)cc3CCN2C(=O)c2cccc([N+](=O)[O-])c2)cc1OC", "note": "(centres unmarked)", "hERG current change (%, negative = inhibition) at 1uM": 11.3}
{"smiles": "COc1cc(OC)cc(OC(=O)c2cccc(S(=O)(=O)N3CCN(C)CC3)c2)c1", "hERG current change (%, negative = inhibition) at 1uM": 9.94}
{"smiles": "O=C(NCC1CCCC(CNC(=O)N2CCc3ccccc32)C1)N1CCc2ccccc21", "note": "(centres unmarked)", "hERG current change (%, negative = inhibition) at 1uM": 22.6}
{"smiles": "COc1nc(OC)nc(N2CCC(NC(=O)C(Cc3ccc(C(C)C)cc3)NC(C)=O)CC2)n1", "note": "(centres unmarked)", "hERG current change (%, negative = inhibition) at 1uM": 13.1}
{"smiles": "CCCNC(=O)N1CCC(Cc2ccccc2)CC1", "hERG current change (%, negative = inhibition) at 1uM": 8.45}
{"smiles": "CCOC(=O)c1ccccc1OC(=O)CS(=O)c1ccccc1[N+](=O)[O-]", "note": "(centres unmarked)", "hERG current change (%, negative = inhibition) at 1uM": 15.2}
{"smiles": "Cc1c(C(=O)N2CCN(c3ccc(F)cc3)CC2)sc2nc3n(c(=O)c12)CCC3", "hERG current change (%, negative = inhibition) at 1uM": 2.54}
{"smiles": "COc1ccc(-c2nc(-c3ccc(C(=O)O)cc3)no2)cc1", "hERG current change (%, negative = inhibition) at 1uM": 7.29}
{"smiles": "C/C=C\\C=C/C(=O)Nc1cccc(C2=NOC3(C2)C[C@@H](C(N)=O)N(C(=O)c2ccccc2)C3)c1", "note": "(some centres unmarked)", "hERG current change (%, negative = inhibition) at 1uM": 12.8}
{"smiles": "O=S1(=O)CCC(NC(=S)N2CCOCC2)C1", "note": "(centres unmarked)", "hERG current change (%, negative = inhibition) at 1uM": 12.3}
{"smiles": "CCc1cc2c(N3CCN(C)CC3)ncnc2s1.Cl", "hERG current change (%, negative = inhibition) at 1uM": -18}
{"smiles": "CCOC(=O)N1CCN(C(c2ccccc2)c2sc3nc(C)nn3c2O)CC1", "note": "(centres unmarked)", "hERG current change (%, negative = inhibition) at 1uM": 4.76}
